Experimental data: the BET-seq Pho4 binding data (Le et al. 2018)
This is one part of the list. The energies were worked out here from pooled read counts, against the library average; single values are noisy.

biological target: T1, Pho4 (S. cerevisiae) (UniProt P07270); experiment: relative binding free energy (BET-seq); higher = weaker binding; conditions: reference: library average
T1 sequence: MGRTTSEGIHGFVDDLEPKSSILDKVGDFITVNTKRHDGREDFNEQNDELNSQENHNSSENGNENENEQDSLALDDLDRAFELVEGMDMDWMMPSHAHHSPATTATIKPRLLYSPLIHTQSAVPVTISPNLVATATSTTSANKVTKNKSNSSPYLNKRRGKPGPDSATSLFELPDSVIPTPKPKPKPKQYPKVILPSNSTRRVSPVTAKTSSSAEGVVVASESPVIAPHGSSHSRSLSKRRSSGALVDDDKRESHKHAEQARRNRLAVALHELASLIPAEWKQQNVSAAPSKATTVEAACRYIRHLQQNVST

| Sequence | relative binding free energy |
| --- | --- |
| GTTAACACGTGGCGTG | -0.03 kcal/mol |
| TTGCGCACGTGTTGTC | -0.19 kcal/mol |
| GGTGACACGTGTGTAC | 0.06 kcal/mol |
| TGCCTCACGTGTTGTT | 0.15 kcal/mol |
| ATGAACACGTGGGGGG | -0.03 kcal/mol |
| GATGTCACGTGAGTGT | 0.34 kcal/mol |
| TAGCACACGTGGGGTG | -0.18 kcal/mol |
| TCGTTCACGTGGTGTG | 0.14 kcal/mol |
| GTAGGCACGTGTTCAA | 0.13 kcal/mol |
| GAGCTCACGTGGGGGG | 0.15 kcal/mol |
| TTTAGCACGTGCCGGG | -0.18 kcal/mol |
| ACGGGCACGTGGTTGA | -0.13 kcal/mol |
| GGAGTCACGTGGCGCT | 0.03 kcal/mol |
| TAAGGCACGTGAGGGC | 0.15 kcal/mol |
| TTAGGCACGTGATATG | -0.04 kcal/mol |
| GTGTACACGTGGTATC | 0.02 kcal/mol |
| TATTGCACGTGAACTG | 0.18 kcal/mol |
| CATCGCACGTGGTTGG | 0.01 kcal/mol |
| GTTGACACGTGGCGTA | -0.15 kcal/mol |
| TTTGACACGTGTTGTA | -0.05 kcal/mol |
| GGGTGCACGTGTCTAT | -0.03 kcal/mol |
| GAGGTCACGTGTGTAT | 0.23 kcal/mol |
| CAGTACACGTGTGGGA | 0.14 kcal/mol |
| ATTGGCACGTGGAGCT | -0.19 kcal/mol |
| ATAGGCACGTGTAGTA | 0.01 kcal/mol |

| Sequence | relative binding free energy |
| --- | --- |
| ATGGGCACGTGTATTC | -0.01 kcal/mol |
| AGCGTCACGTGTCTGG | 0.03 kcal/mol |
| TTTTTCACGTGTCAAA | 0.3 kcal/mol |
| AGGGGCACGTGCTTAA | -0.12 kcal/mol |
| GCGATCACGTGTGGTA | 0.24 kcal/mol |
| AGATGCACGTGCAGTG | -0.13 kcal/mol |
| AGCGGCACGTGGCTGG | -0.19 kcal/mol |
| TATTTCACGTGCAGAG | 0.22 kcal/mol |
| TAAAGCACGTGAGTGG | 0.07 kcal/mol |
| AAAAACACGTGGAGGT | 0.09 kcal/mol |
| TTTCGCACGTGTGGAT | 0.01 kcal/mol |
| TGTTCCACGTGTGATA | 0.01 kcal/mol |
| TGGGGCACGTGATGTA | 0.05 kcal/mol |
| GCTTGCACGTGGGCTT | -0.13 kcal/mol |
| TTGTACACGTGGATGA | 0.08 kcal/mol |
| TATAACACGTGTTTAG | -0.07 kcal/mol |
| TAGCACACGTGGGGCG | -0.08 kcal/mol |
| GGAGGCACGTGCGTGC | -0.06 kcal/mol |
| TGTTTCACGTGGCGTA | 0.28 kcal/mol |
| TGGGTCACGTGCTAAG | 0.05 kcal/mol |
| GCTGGCACGTGTGGTG | -0.05 kcal/mol |
| ACTGTCACGTGGTGGA | -0.02 kcal/mol |
| CAGTTCACGTGCGGTT | 0.14 kcal/mol |
| GGTGCCACGTGAGGGG | 0.18 kcal/mol |
| TGAGACACGTGGCAGG | -0.06 kcal/mol |

| Sequence | relative binding free energy |
| --- | --- |
| TTATTCACGTGAGGTC | 0.34 kcal/mol |
| GGGGTCACGTGGACAA | 0.19 kcal/mol |
| AATTGCACGTGAAGAG | 0.21 kcal/mol |
| TGTGGCACGTGAGAAT | 0.2 kcal/mol |
| CGAGACACGTGTGGAT | 0.16 kcal/mol |
| ATTTACACGTGGGTTT | 0.01 kcal/mol |
| AGTTTCACGTGTAATA | 0.26 kcal/mol |
| TTCGACACGTGGTTGA | 0.03 kcal/mol |
| CAGGTCACGTGGGATT | 0.12 kcal/mol |
| TTATGCACGTGAATTA | 0.16 kcal/mol |
| GTATGCACGTGGGTAG | -0.12 kcal/mol |
| GTCTTCACGTGGTTTG | 0.41 kcal/mol |
| TGAGACACGTGGCTGG | -0.16 kcal/mol |
| GTGTTCACGTGGGGTC | 0.16 kcal/mol |
| TTTTTCACGTGAGTCG | 0.39 kcal/mol |
| TGTTACACGTGTTACG | 0.04 kcal/mol |
| TTGGGCACGTGTACTG | -0.06 kcal/mol |
| TAGTCCACGTGGGGGT | -0.06 kcal/mol |
| AAAGGCACGTGTGGAT | -0.03 kcal/mol |
| CACGTCACGTGTTGGG | 0.04 kcal/mol |
| TATTGCACGTGGGGAT | -0.16 kcal/mol |
| TGGGACACGTGTAATG | 0.05 kcal/mol |
| GTAGTCACGTGTGTTT | 0.22 kcal/mol |
| AGCTTCACGTGAGTGA | 0.33 kcal/mol |
| CGGGCCACGTGGGACG | -0.16 kcal/mol |

| Sequence | relative binding free energy |
| --- | --- |
| TGAAACACGTGGGGGT | -0.13 kcal/mol |
| AGTAGCACGTGTGTTT | 0.07 kcal/mol |
| TTATTCACGTGGTTAG | 0.11 kcal/mol |
| CGGTTCACGTGATCGT | 0.31 kcal/mol |
| CGATGCACGTGTTTAT | -0.05 kcal/mol |
| GGTTGCACGTGGGAAA | 0.06 kcal/mol |
| ATCTACACGTGGTGAG | 0.1 kcal/mol |
| ATGATCACGTGAGGCT | 0.42 kcal/mol |
| AATTACACGTGGTATT | 0.1 kcal/mol |
| TCATTCACGTGTGGAT | 0.27 kcal/mol |
| GGTTGCACGTGGAAAA | 0.22 kcal/mol |
| GAGTCCACGTGTAGGG | 0.14 kcal/mol |
| TGTTGCACGTGGAATT | 0.09 kcal/mol |
| ATCGTCACGTGATGGA | 0.16 kcal/mol |
| CTGTGCACGTGTAGTG | -0.11 kcal/mol |
| ATCAGCACGTGTCGGG | 0 kcal/mol |
| AGGGACACGTGGATGC | 0.21 kcal/mol |
| TTTTTCACGTGTCTAT | 0.26 kcal/mol |
| GCGCACACGTGGGGGG | -0.05 kcal/mol |
| CAGAGCACGTGGTTGT | -0.16 kcal/mol |
| GTTAGCACGTGATTGC | 0.16 kcal/mol |
| TTTTGCACGTGGGTAA | -0.12 kcal/mol |
| TGGAGCACGTGGGAGA | -0.14 kcal/mol |
| GGATCCACGTGATGTG | 0.17 kcal/mol |
| TGCGGCACGTGGAGTG | -0.04 kcal/mol |

| Sequence | relative binding free energy |
| --- | --- |
| TGTGGCACGTGGTACG | -0.16 kcal/mol |
| TTGATCACGTGTGTCG | 0.01 kcal/mol |
| TTATGCACGTGTTGCC | 0.02 kcal/mol |
| AGCTTCACGTGATAGT | 0.32 kcal/mol |
| GGGGTCACGTGGGGCT | 0.08 kcal/mol |
| CAATTCACGTGTTGTA | 0.39 kcal/mol |
| GTTTGCACGTGGTCAT | -0.02 kcal/mol |
| GGCAGCACGTGGATGA | 0.08 kcal/mol |
| AGCGTCACGTGCGGGT | 0.03 kcal/mol |
| TTCCTCACGTGGTTTG | 0.22 kcal/mol |
| ATGTGCACGTGCGGGG | -0.04 kcal/mol |
| GGGTCCACGTGTTTTT | -0.07 kcal/mol |
| TTGAACACGTGGTAGA | 0.02 kcal/mol |
| GTGGGCACGTGGCGTG | -0.14 kcal/mol |
| GGGCTCACGTGCGGGA | 0.23 kcal/mol |
| TAATGCACGTGGGCTA | -0.13 kcal/mol |
| ATTCGCACGTGATTTG | -0.01 kcal/mol |
| CTTTGCACGTGTGTAA | -0.08 kcal/mol |
| TTGGACACGTGAGACG | 0.21 kcal/mol |
| TGGATCACGTGTAGTG | 0.15 kcal/mol |
| AGGTCCACGTGCGTGT | -0.08 kcal/mol |
| TCTGGCACGTGGGAAG | -0.22 kcal/mol |
| GTGGTCACGTGAAGAG | 0.36 kcal/mol |
| AGTGTCACGTGGGGAT | 0 kcal/mol |
| TTAAGCACGTGATGTA | -0.06 kcal/mol |

| Sequence | relative binding free energy |
| --- | --- |
| CTTGGCACGTGGGATG | -0.13 kcal/mol |
| TATGGCACGTGCGTGG | -0.14 kcal/mol |
| ACGTACACGTGATGGT | 0.14 kcal/mol |
| TGTTGCACGTGGGCCA | -0.09 kcal/mol |
| TTTGTCACGTGTTGCG | 0.03 kcal/mol |
| TTGAACACGTGGGCTG | -0.19 kcal/mol |
| TTTAGCACGTGTGAGA | 0.09 kcal/mol |
| GAGGACACGTGTGTTG | 0.02 kcal/mol |
| TTAGCCACGTGATGTT | -0.06 kcal/mol |
| AGTGTCACGTGCGGGT | -0.03 kcal/mol |
| TGCTACACGTGGGTTG | -0.15 kcal/mol |
| GCTGTCACGTGGGTAG | -0.06 kcal/mol |
| CATTTCACGTGTGGAA | 0.36 kcal/mol |
| TTTTGCACGTGAATTC | 0.22 kcal/mol |
| GTTGTCACGTGTGGGT | 0.18 kcal/mol |
| GTTATCACGTGTTGGG | 0.23 kcal/mol |
| CAGAGCACGTGAGGGT | 0.07 kcal/mol |
| TGGCACACGTGGGTGG | -0.06 kcal/mol |
| TGATCCACGTGGGTGA | -0.04 kcal/mol |
| ATGTCCACGTGTTTGG | -0.02 kcal/mol |
| ATTTGCACGTGCTGAG | -0.06 kcal/mol |
